In US9908927B2, “Single-chain trail-receptor agonist proteins” (AbbVie Inc., priority 2014, dated 2018):

B1: Molecule D: made up of two polypeptides of SEQ ID NO:28; three hinge cysteines, N297S, glycosites on both linkers depleted (protein)
chain: QRVAAHITGTRGRSNTLSSPNSKNEKALGRKINSWESSRSGHSFLSNLHLRNGELVIHEKGFYYIYSQTYFRFQEEIKENTKNDKQMVQYIYKYTSYPDPILLMKSARNSCWSKDAEYGLYSIYQGGIFELKENDRIFVSVTNEHLIDMDHEASFFGAFLVGGSGSGSRVAAHITGTRGRSNTLSSPNSKNEKALGRKINSWESSRSGHSFLSNLHLRNGELVIHEKGFYYIYSQTYFRFQEEIKENTKNDKQMVQYIYKYTSYPDPILLMKSARNSCWSKDAEYGLYSIYQGGIFELKENDRIFVSVTNEHLIDMDHEASFFGAFLVGGSGSGSRVAAHITGTRGRSNTLSSPNSKNEKALGRKINSWESSRSGHSFLSNLHLRNGELVIHEKGFYYIYSQTYFRFQEEIKENTKNDKQMVQYIYKYTSYPDPILLMKSARNSCWSKDAEYGLYSIYQGGIFELKENDRIFVSVTNEHLIDMDHEASFFGAFLVGGPGSSSSSSSG[human IgG1 Fc with N297S (EU numbers) not written out]SSSSSAWSHPQFEK
modifications: homodimer
notes: three hinge cysteines, N297S, glycosites on both linkers depleted
B2: Molecule C: made up of two polypeptides of SEQ ID NO: 27; three hinge cysteines, N297S, glycosite at position 168 but not 337 (protein)
chain: QRVAAHITGTRGRSNTLSSPNSKNEKALGRKINSWESSRSGHSFLSNLHLRNGELVIHEKGFYYIYSQTYFRFQEEIKENTKNDKQMVQYIYKYTSYPDPILLMKSARNSCWSKDAEYGLYSIYQGGIFELKENDRIFVSVTNEHLIDMDHEASFFGAFLVGGSGSGNGSRVAAHITGTRGRSNTLSSPNSKNEKALGRKINSWESSRSGHSFLSNLHLRNGELVIHEKGFYYIYSQTYFRFQEEIKENTKNDKQMVQYIYKYTSYPDPILLMKSARNSCWSKDAEYGLYSIYQGGIFELKENDRIFVSVTNEHLIDMDHEASFFGAFLVGGSGSRVAAHITGTRGRSNTLSSPNSKNEKALGRKINSWESSRSGHSFLSNLHLRNGELVIHEKGFYYIYSQTYFRFQEEIKENTKNDKQMVQYIYKYTSYPDPILLMKSARNSCWSKDAEYGLYSIYQGGIFELKENDRIFVSVTNEHLIDMDHEASFFGAFLVGGPGSSSSSSSG[human IgG1 Fc with N297S (EU numbers) not written out]SSSSSAWSHPQFEK
modifications: homodimer

Assay: Half-life determination in NMRI mice
Assay type: in vivo
Details: for in vivo stability (as judged by compound half-life): NMRI mice, comparison between Molecules A-D; for Terminal Half-life 4 mg/kg i.v.: female NMRI mice, 4 mg/kg single intravenous bolus, serum, ELISA
Protocol: Molecules A-D are each made up of two polypeptides covalently linked by interchain disulfide bonds. The number of glycosites and hinge cysteines (resulting in interchain disulfide bonds between proteins) were tested in order to determine the effect that altering these characteristics has on the half-life of these compounds.
Female NMRI mice were treated with 1.2 mg/kg bw and/or with 4 mg/kg bw of the specified compounds as a single intravenous bolus injection. Whole blood was collected before application (predose), and up to 168 hours after test item administration. Serum was prepared and samples were stored at −80° C. until determination of serum concentrations. Pharmacokinetic parameters were calculated using the mean serum concentrations and the pharmacokinetic evaluation program PK Solutions Version 2.0 for non-compartmental pharmacokinetic data analysis (Summit Research Services, Montrose, Colo.). PK Solutions is an automated, Excel-based application, which computes pharmacokinetic parameters from concentration-time data obtained from analysis of e.g. biological samples following intravenous or extra-vascular routes of administration. PK Solutions calculates results without presuming any specific compartmental model.
Quantitation of the test items in serum was performed with an ELISA-assay detecting the individual TRAIL-receptor agonists shown in Table 7 independent of a Strep-Tag being part of the molecules.

Row | Molecule | in vivo stability (as judged by compound half-life) | Terminal Half-life 4 mg/kg i.v.
1 | B1 | reduced in vivo stability | 8.81 h
2 | B2 | intermediate in vivo stability when compared to Molecules B and D | 21.03 h
